Values joined by “and” are separate entries in the source; they are usually repeats but may differ in a detail not shown here. Equal entries are not always repeated. Among all 220,000 compounds or so, about 5,700 (2.6%) were called active. This list was built around the results that the source calls inconclusive (neither active nor inactive); the mix of calls is not that of the screen. Calls come from the whole dose curve; as a rule, active = well fitted inhibition curve with a large enough effect; inconclusive = small, poorly fitted or top-dose-only effect; inactive = no such curve, though single readings can be large or run the other way. Potencies of inconclusive entries are doubtful fits and often do not repeat.
Target: Lysine-specific demethylase 5B (Homo sapiens) (UniProt Q9UGL1)
Sequence of UniProt Q9UGL1 (Q9UGL1 whole entry, looked up): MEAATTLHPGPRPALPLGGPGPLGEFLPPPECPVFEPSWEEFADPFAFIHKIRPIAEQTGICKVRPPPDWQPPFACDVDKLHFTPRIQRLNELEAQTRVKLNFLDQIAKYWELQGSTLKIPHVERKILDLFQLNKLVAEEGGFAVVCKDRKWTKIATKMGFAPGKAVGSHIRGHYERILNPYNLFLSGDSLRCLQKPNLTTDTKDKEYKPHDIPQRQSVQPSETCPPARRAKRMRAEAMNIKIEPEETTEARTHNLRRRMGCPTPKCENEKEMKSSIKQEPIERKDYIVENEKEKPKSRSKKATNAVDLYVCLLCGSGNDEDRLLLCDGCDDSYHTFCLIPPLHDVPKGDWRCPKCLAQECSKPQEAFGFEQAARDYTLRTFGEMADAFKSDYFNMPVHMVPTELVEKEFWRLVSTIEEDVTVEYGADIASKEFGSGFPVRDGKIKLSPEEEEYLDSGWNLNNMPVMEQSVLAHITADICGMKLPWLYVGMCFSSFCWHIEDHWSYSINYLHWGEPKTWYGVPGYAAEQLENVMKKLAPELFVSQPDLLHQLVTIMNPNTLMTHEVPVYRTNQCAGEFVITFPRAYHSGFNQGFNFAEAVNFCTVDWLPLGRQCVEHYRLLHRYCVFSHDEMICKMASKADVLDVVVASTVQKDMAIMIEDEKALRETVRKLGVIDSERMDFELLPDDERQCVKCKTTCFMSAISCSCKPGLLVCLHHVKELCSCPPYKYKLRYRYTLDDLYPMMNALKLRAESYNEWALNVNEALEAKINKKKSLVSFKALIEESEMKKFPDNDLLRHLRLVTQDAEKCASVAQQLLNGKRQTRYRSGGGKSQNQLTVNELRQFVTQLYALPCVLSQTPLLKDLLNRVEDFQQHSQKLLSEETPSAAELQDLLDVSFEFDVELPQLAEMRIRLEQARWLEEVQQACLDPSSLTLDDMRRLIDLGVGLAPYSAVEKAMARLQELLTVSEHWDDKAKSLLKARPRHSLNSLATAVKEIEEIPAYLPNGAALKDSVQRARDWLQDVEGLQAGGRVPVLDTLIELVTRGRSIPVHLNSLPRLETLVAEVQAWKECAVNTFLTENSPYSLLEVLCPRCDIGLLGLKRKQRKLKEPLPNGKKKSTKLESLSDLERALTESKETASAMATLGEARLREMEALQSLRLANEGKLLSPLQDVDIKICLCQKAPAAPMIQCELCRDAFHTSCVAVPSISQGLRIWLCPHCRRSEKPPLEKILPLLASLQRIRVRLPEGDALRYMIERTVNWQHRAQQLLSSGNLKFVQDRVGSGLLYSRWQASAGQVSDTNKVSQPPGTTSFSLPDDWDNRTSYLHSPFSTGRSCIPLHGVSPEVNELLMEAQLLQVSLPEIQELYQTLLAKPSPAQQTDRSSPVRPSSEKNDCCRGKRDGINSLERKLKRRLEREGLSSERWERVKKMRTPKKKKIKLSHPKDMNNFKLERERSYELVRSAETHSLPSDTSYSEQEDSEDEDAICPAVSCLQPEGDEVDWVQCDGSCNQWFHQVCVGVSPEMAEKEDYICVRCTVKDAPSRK
Assay: Primary screen for KDM5B Histone Demethylases FDH-coupled qHTS; note: nearly all actives have a fitted effect of over 70% in size; for activity change, negative = inhibition: 0% is about no effect
Conditions: FDH-coupled NADH fluorescence (FDH is formaldehyde dehydrogenase); activity change, negative = inhibition: at 57.7 µM (top of the series) unless noted
Outline: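 Coupled FDH/NAD⁺ fluorescence readout. KDM5BΔAP 200 nM final; compound titration, 10 min RT preincubation; substrate mix 12.5 µM H3K4me3, 25 µM 2-OG, 50 µM Fe(II), 100 µM ascorbate, 0.25 mM NAD⁺, 0.25 U/mL FDH; ΔRFU over 30 min.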
Potency is the fitted concentration of half-maximal effect; tags give direction and shape of the fitted curve.

| SMILES | Potency | activity change, negative = inhibition |
| --- | --- | --- |
| CCOCCCNc1ncnc2c1CN(C1CCCNCC1)C(=O)CN2C (stereo unspecified) | inconclusive: 56.2 µM [inhibitor, partial curve, poor fit] | – |
| c1ccc(CCN(Cc2ccccc2)Cc2cccc(OCc3ccccc3)c2)cc1 | inconclusive: 25.1 µM [inhibitor, single point] | – |
| CSc1ncccc1C(=O)NC(C)C(=O)N1CCN(c2ccccn2)CC1 (stereo unspecified) | inconclusive: 39.8 µM [inhibitor, partial curve, poor fit] | – |
| COc1cc(CNc2ccc3[nH]c(=O)[nH]c3c2)cc(Br)c1OCc1ccccc1F | inconclusive: 25.1 µM [inhibitor, partial curve, poor fit] | – |
| c1cnc2nc(-c3c[nH]c4ccccc34)[nH]c2c1 | inconclusive: 141 µM [inhibitor, partial curve, poor fit] and active: 35.5 µM | – |
| COc1cccc(NC(=O)N(Cc2cn(C)c3ccccc23)C2CCCCCC2)c1 | inconclusive: 28.2 µM [inhibitor, single point] | – |
| COc1ccc2[nH]cc(C(C(=O)O)N3CCN(Cc4ccccc4)CC3)c2c1 (stereo unspecified) | – | inactive: 2.12% |
| O=C(NCc1cccc(C(F)(F)F)c1)OCC(F)(F)F | – | inactive: -3.11% |
| COCC(=O)N1CCN2C(=O)N(Cc3ccccc3)C(=O)[C@H]2C1 | – | inactive: -6.2% [at 86.2 µM] |
| O=C(Nc1ccccc1Cl)N1CCCC2(C1)Nc1cccnc1NC2=NC1CCCC1 (stereo unspecified) | active: 28.2 µM | – |
| Cc1noc(C)c1-c1cnc(Nc2ccccc2)c2c1CCO2 | active: 35.5 µM | – |
| Cc1cccc(C(=O)Nc2ccc(N3CCC(N4CCCCC4)CC3)c(C(=O)O)c2)c1 | inconclusive: 28.2 µM [inhibitor, single point] | – |
| CCC(=O)N1Cc2ccccc2CC2(CCCN(Cc3ccncc3)C2)C1 (stereo unspecified) | inconclusive: 50.1 µM [inhibitor, partial curve] | – |
| CN(C)c1cc(=O)c2ccnc(Nc3cccnc3)c2o1 | inconclusive: 31.6 µM [inhibitor, single point] | – |
| COCCOC1CCN(C(=O)c2ccc3[nH]ccc3c2)CC1 | – | inactive: 10.6% |
| CN(C)CCNC(=O)c1nc2nc(-c3ccccc3)c(-c3ccc(O)c(F)c3)cc2n1C | inconclusive: 39.8 µM [inhibitor, partial curve, poor fit] | – |
| CCOCCCNC(=O)c1cc2cc(S(=O)(=O)N(C)C)ccc2n1C | – | inactive: -11.4% |
| Cc1ccc(CNC(=O)CCCN2C(=O)CCn3nc(-c4cccn4C)cc32)cc1 | inconclusive: 1.78 µM [inhibitor, partial curve, poor fit] | – |
| O=C(Cc1ccccc1)NCC1CCOCC1 | – | inactive: 4.43% |
| CC(C)CNC1(Cc2cc(-c3cccc(O)c3)on2)COC1 | inconclusive: 39.8 µM [inhibitor, partial curve, poor fit] | – |
| Cc1cc(OC(C)C(=O)NCc2ccccn2)c2c(C)cc(=O)oc2c1 (stereo unspecified) | inconclusive: 10 µM [inhibitor, partial curve, poor fit] | – |
| Cc1cccc(C(=O)N2C(C(=O)NC(C)c3ccccc3)COC23CCC(C)CC3)c1 (stereo unspecified) | – | inactive: 0.896% |
| Cc1n[nH]c(C)c1Cc1ccc(C(=O)NCC2Cn3cccc3CN2C)o1 (stereo unspecified) | inconclusive: 14.1 µM [inhibitor, partial curve, poor fit] | – |
| COCCNC(=O)CN1C(=O)COc2ccc(S(=O)(=O)N3CCCC3)cc21 | – | inconclusive: -32.2% [inhibitor] |
| CN1CC(=O)N(C2CCCNCC2)Cc2c(NCCCN3CCCCC3)ncnc21 (stereo unspecified) | inconclusive: 56.2 µM [inhibitor, partial curve, poor fit] | – |
| Cc1nnc(SCC(=O)Nc2ccc(N(C)C)cc2)[nH]c1=O | inconclusive: 17.8 µM [inhibitor, partial curve, poor fit] | – |
